Assay results published in patent US10064939B2, “Combination therapy using c-Met inhibitor and IGF-1R inhibitor for c-Met inhibitor resistant cancers” (Samsung Electronics Co., Ltd., priority 2014, dated 2018).

Experiments:
Conditions in all cases: rank among the four antibodies of Reference Example 1.7
c-Met [1] = biological target: T1, c-Met (Homo sapiens, UniProt P08581); assay: Affinity for c-Met of affinity-matured antibodies; assay type: binding
c-Met [2] = biological target: T1, c-Met; assay: c-Met degradation degree; assay type: cell-based
Akt phosphorylation = assay: Akt phosphorylation; assay type: cell-based

T1 sequence (P08581 25-1390): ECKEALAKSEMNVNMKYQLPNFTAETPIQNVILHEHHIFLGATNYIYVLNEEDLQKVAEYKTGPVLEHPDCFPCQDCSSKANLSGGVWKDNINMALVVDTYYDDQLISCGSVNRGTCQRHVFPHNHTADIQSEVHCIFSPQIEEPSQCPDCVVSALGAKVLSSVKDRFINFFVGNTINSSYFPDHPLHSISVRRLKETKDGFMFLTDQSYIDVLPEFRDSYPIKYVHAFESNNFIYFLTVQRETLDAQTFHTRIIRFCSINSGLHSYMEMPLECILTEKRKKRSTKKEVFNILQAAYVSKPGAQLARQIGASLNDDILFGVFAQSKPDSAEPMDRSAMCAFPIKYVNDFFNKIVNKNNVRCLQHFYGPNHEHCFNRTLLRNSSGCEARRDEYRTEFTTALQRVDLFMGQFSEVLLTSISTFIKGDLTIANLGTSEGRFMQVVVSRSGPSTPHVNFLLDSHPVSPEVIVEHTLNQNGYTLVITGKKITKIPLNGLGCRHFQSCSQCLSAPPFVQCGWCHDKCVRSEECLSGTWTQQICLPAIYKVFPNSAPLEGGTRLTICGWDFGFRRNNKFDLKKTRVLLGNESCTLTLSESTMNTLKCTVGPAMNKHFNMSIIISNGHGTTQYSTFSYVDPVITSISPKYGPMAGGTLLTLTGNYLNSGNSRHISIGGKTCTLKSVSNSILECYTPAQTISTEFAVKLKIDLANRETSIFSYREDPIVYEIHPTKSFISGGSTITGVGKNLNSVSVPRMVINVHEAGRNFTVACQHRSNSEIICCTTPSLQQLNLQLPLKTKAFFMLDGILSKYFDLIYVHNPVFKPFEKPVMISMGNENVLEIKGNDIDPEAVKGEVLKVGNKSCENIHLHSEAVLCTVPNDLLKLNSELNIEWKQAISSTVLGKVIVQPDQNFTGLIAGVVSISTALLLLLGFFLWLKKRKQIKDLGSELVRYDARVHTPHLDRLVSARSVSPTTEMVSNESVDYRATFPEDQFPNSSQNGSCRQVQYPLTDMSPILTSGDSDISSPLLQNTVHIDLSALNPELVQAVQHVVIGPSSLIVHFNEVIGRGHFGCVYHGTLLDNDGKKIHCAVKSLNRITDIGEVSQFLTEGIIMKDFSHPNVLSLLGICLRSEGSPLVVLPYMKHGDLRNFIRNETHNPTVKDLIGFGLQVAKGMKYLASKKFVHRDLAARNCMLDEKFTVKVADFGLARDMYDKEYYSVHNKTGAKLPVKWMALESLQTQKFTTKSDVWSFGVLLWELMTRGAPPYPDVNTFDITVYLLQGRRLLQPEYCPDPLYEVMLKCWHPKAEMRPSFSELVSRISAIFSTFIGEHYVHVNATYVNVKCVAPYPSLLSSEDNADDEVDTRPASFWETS

affinity for c-Met (c-Met [1]): highest
c-Met degradation degree (c-Met [2]): lowest
B1: huAbF46-H4-A1: affinity-matured humanized anti-c-Met antibody, L3-1 origin (CDR-L3 SEQ ID NO: 13), U6-HC7 hinge (antibody)
heavy: EVQLVESGGGLVQPGGSLRLSCAASGFTFTDYYMSWVRQAPGKGLEWLGFIRNKANGYTTEYSASVKGRFTISRDNSKNTLYLQMNSLRAEDTAVYYCARDNWFAYWGQGTLVTVSSASTKGPSVFPLAPSSKSTSGGTAALGCLVKDYFPEPVTVSWNSGALTSGVHTFPAVLQSSGLYSLSSVVTVPSSSLGTQTYICNVNHKPSNTKVDKKVEPKSCDCH[human IgG1 Fc left out]
light: DIQMTQSPSSLSASVGDRVTITCKSSQSLLASGNQNNYLAWHQQKPGKAPKMLIIWASTRVSGVPSRFSGSGSGTDFTLTISSLQPEDFATYYCQQSYSRPYTFGQGTKVEIKRTVAAPSVFIFPPSDEQLKSGTASVVCLLNNFYPREAKVQWKVDNALQSGNSQESVTEQDSKDSTYSLSSTLTLSKADYEKHKVYACEVTHQGLSSPVTKSFNRGEC
Akt phosphorylation (Akt phosphorylation): lowest
